Data: article PMC5892938
The other results are listed elsewhere or left out. Construct or isoform of the protein are uncertain.

Target: GST-SBP-ILF3 (Homo sapiens) (UniProt Q12906)
Test: targeted RNA Bind-n-Seq
Conditions: RBNS binding buffer: 25 mM Tris pH 7.5, 150 mM KCl, 3 mM MgCl2, 0.1% Tween, 0.5 mg/mL BSA, 1 mM DTT; 27 nM protein, 750 pM RNA pool; temperature not stated; high values mean tight binding; sequences stand for … in GGGUAAAAGCGAGGUGAA…CGGGACAAGUAUUAUGGG

Row | Sequence | binding signal (log2 fold change)
1 | UUUUUUUUUUGAGACUGUAACAGUCUUCUA [tttttgagapaired] | 0.41
2 | UUUUUUUUUUGAGACUGUAUCAGUUUCCGG [tttttgagapaired] | 0.439
3 | GUGGUGUGUGUUGGCUCCUAACACAUACCA [gtspaired] | -0.125
4 | UUUUUUUUUUGAGAUGGCCGCCAUCUCCUG [tttttgagapaired] | 0.896
5 | GUGUGGUGUGUUGGAAUCUAACACAUCACG [gtspaired] | -0.687
6 | UUUUUUUUUUGAGAGGGCGGCCCUCUCCUA [tttttgagapaired] | 0.946
7 | GUGUGUGGUGUUGGCACCUAACACCACGCA [gtspaired] | -0.245
8 | GUUGGUGGUGUUGGUCCCUAACACCACCAG [gtspaired] | -0.294
9 | GUGUGUGGUGUUGGCAUCUAACACCGCAUA [gtspaired] | -0.683
10 | UUUUUUUUUUGAGACUGCGGCAGUCUUCUA [tttttgagapaired] | 0.532
11 | UUUUUUUUUUGAGAGGGAUCCCCUCUUCUG [tttttgagapaired] | 0.126
12 | UUUUUUUUUUGAGAGCGUGACGUUCUUCUA [tttttgagapaired] | 0.531
13 | UUUUUUUUUUGAGAGGGUAUCCCUCUUCUG [tttttgagapaired] | 0.323
14 | UUUUUUUUUUGAGAUGGAAACUAUCUUCUA [tttttgagapaired] | 0.0871
15 | GGUGGUUGUGUUGGCUUCUAACACAAUCGC [gtspaired] | -0.131
16 | UUUUUUUUUUGAGACGGGAUCCGUUUCCGG [tttttgagapaired] | 0.544
17 | UUUUUUUUUUGAGACGGAGACCGUUUCCAG [tttttgagapaired] | 0.774
18 | UUUUUUUUUUGAGACCGAGGCGGUUUCCUA [tttttgagapaired] | 0.758
19 | UUUUUUUUUUGAGAGCGGAUCGCUCUCCGG [tttttgagapaired] | 0.381
20 | UUUUUUUUUUGAGACUGAGGCAGUCUUCUG [tttttgagapaired] | 0.587
21 | GGUUGUGGUGUUGGCGCCUAACACCAUAAC [gtspaired] | -0.208
22 | UUUUUUUUUUGAGAUCGGGACGAUCUUCUG [tttttgagapaired] | 0.534
23 | UUUUUUUUUUGAGACUGAACCAGUUUCCAG [tttttgagapaired] | -0.0501
24 | UUCUCUCUUCCUCCAGUGGAGGAGGGGAGA [ctspaired] | -0.596
25 | UUUUUUUUUUGAGAACGACACGUUCUCCGG [tttttgagapaired] | 0.116
26 | UUUUUUUUUUGAGAUCGAAGCGAUUUCCGG [tttttgagapaired] | 0.533

Row | Sequence | binding signal (log2 fold change)
27 | UUUUUUUUUUGAGACUGUGACAGUCUUCUG [tttttgagapaired] | 0.712
28 | UUUUUUUUUUGAGACUGCGGCAGUCUCCUG [tttttgagapaired] | 0.681
29 | GUGUGUUGUGUUGGACUCUAACACAGCACA [gtspaired] | -0.694
30 | GGUGUGUGUGUUGGCCCCUAACACAUAUAC [gtspaired] | -0.3
31 | GGUUGUGGUGUUGGAAUCUAACACCGCGAC [gtspaired] | -0.473
32 | GUGUGGUGUGUUGGCCCCUAACACACCGCG [gtspaired] | -0.116
33 | UUUUUUUUUUGAGACUGCGACAGUUUUCUA [tttttgagapaired] | 0.283
34 | GUGUGUGGUGUUGGUCCCUAACACCGCGCA [gtspaired] | -0.753
35 | UUUUUUUUUUGAGAUGGAGGCCAUCUCCUA [tttttgagapaired] | 0.134
36 | GUGUGUGGUGUUGGCGUCUAACACCAUACA [gtspaired] | -0.424
37 | GGUGGUGGUGUUGGAGUCUAACACCGCUAC [gtspaired] | -0.474
38 | UUUUUUUUUUGAGACUGAAACAGUUUUCUA [tttttgagapaired] | -0.298
39 | UUUUUUUUUUGAGAGCGUGACGCUCUCCUA [tttttgagapaired] | 0.217
40 | UUUUUUUUUUGAGACGGAGCCCGUCUCCAG [tttttgagapaired] | 0.478
41 | GUGGUGUGUGUUGGUUCCUAACACAUACCA [gtspaired] | -0.919
42 | UUUUUUUUUUGAGAGGGUCUCCCUCUUCUA [tttttgagapaired] | 0.465
43 | GUGUGUUGUGUUGGUGCCUAACACAGCGCG [gtspaired] | -0.57
44 | UUUUUUUUUUGAGACGGAAUCUGUUUCCAG [tttttgagapaired] | 0.308
45 | UUUUUUUUUUGAGAGGGACUCCCUCUCCUA [tttttgagapaired] | 0.528
46 | UUUUUUUUUUGAGAGUGUAUCAUUCUCCUA [tttttgagapaired] | -0.237
47 | UUUUUUUUUUGAGACUGGCGCAGUCUCCAG [tttttgagapaired] | 0.651
48 | UUUUUUUUUUGAGAGCGGACCGCUCUUCUA [tttttgagapaired] | 0.408
49 | GUGUGUUGUGUUGGAUUCUAACACAGCACG [gtspaired] | -0.667
50 | GUGUGUGGUGUUGGACUCUAACACCGCAUA [gtspaired] | -0.727
51 | GGUGUGUGUGUUGGCCCCUAACACACGCGC [gtspaired] | -0.0102
52 | GUGGUUGGUGUUGGAAUCUAACACCGACCG [gtspaired] | -0.42

Row | Sequence | binding signal (log2 fold change)
53 | UUUUUUUUUUGAGAGUGGUCCAUUCUCCGG [tttttgagapaired] | 0.586
54 | UUUUUUUUUUGAGAUGGUAGCUAUCUCCAG [tttttgagapaired] | 0.441
55 | GUGUGGUGUGUUGGCGUCUAACACACUACG [gtspaired] | -0.513
56 | GGUUGGUGUGUUGGUGCCUAACACAUCAGC [gtspaired] | -0.773
57 | UUUUUUUUUUGAGACUGCAACAGUCUCCGG [tttttgagapaired] | 0.329
58 | UUUUUUUUUUGAGAUGGAAGCUAUCUCCGG [tttttgagapaired] | 0.207
59 | UUUUUUUUUUGAGACCGGGACGGUCUCCUA [tttttgagapaired] | 0.655
60 | UUUUUUUUUUGAGAGCGACGCGCUCUCCGG [tttttgagapaired] | 0.314
61 | GGUGUGUGUGUUGGACCCUAACACACGCGC [gtspaired] | -0.254
62 | UUUUUUUUUUGAGAGUGUAACACUCUUCUA [tttttgagapaired] | -0.0559
63 | UUUUUUUUUUGAGAGGGCAUCCCUCUCCUG [tttttgagapaired] | 0.607
64 | GUGGUUGGUGUUGGCGCCUAACACCGACCA [gtspaired] | -0.14
65 | UUUUUUUUUUGAGACUGGAACAGUUUCCUA [tttttgagapaired] | 0.264
66 | UUUUUUUUUUGAGAGCGUGCCGCUCUCCUA [tttttgagapaired] | 0.894
67 | GUGUGUGGUGUUGGAUCCUAACACCGCGCA [gtspaired] | -0.391
68 | UUUUUUUUUUGAGACCGAAGCGGUCUCCUA [tttttgagapaired] | 0.827
69 | UUUUUUUUUUGAGAUCGAUCCGAUCUCCUG [tttttgagapaired] | 0.00429
70 | UUUUUUUUUUGAGAGCGACGCGCUCUCCAG [tttttgagapaired] | 0.333
71 | GUGGUGUGUGUUGGCGCCUAACACAUACCA [gtspaired] | -0.222
72 | GGUGUUGGUGUUGGUCCCUAACACCAAUAC [gtspaired] | -0.523
73 | UUUUUUUUUUGAGAUGGUUCCCAUCUCCGG [tttttgagapaired] | 0.284
74 | GUGGUUGGUGUUGGCAUCUAACACCGACCG [gtspaired] | -0.735
75 | GUGUGGUGUGUUGGCCCCUAACACACCGCA [gtspaired] | -0.335
76 | GGUGGUUGUGUUGGUCCCUAACACAAUCGC [gtspaired] | -0.684
77 | UUUUUUUUUUGAGAUGGUAUCCAUUUCCAG [tttttgagapaired] | 0.0634
78 | UUUUUUUUUUGAGACGGCUGCCGUCUCCGG [tttttgagapaired] | 0.818

Row | Sequence | binding signal (log2 fold change)
79 | GUGUGGUGUGUUGGCGCCUAACACACCGCG [gtspaired] | -0.599
80 | GUGUGUGGUGUUGGUCCCUAACACCGCACA [gtspaired] | -0.13
81 | GUGGUGUGUGUUGGCACCUAACACAUACCA [gtspaired] | -0.725
82 | GUGGUUGGUGUUGGCACCUAACACCAGCCA [gtspaired] | -0.653
83 | GUGUGUUGUGUUGGAUCCUAACACAGCGCA [gtspaired] | -0.62
84 | UUUUUUUUUUGAGACGGAAGCCGUCUCCUG [tttttgagapaired] | 0.5
85 | GUGGUUGGUGUUGGCCUCUAACACCAAUCA [gtspaired] | -0.463
86 | GUGUGGUGUGUUGGAACCUAACACACUACA [gtspaired] | -0.616
87 | GUGGUGUGUGUUGGAUUCUAACACAUACCG [gtspaired] | -0.682
88 | UUUUUUUUUUGAGACGGAUUCUGUCUCCUA [tttttgagapaired] | -0.00478
89 | UUUUUUUUUUGAGAGGGCCGCCCUCUCCUA [tttttgagapaired] | 0.973
90 | UUUUUUUUUUGAGAGGGCAACCCUCUCCGG [tttttgagapaired] | 0.218
91 | UUUUUUUUUUGAGACUGCAUCAGUCUCCAG [tttttgagapaired] | 0.291
92 | UUUUUUUUUUGAGAGCGAUACGUUCUCCGG [tttttgagapaired] | 0.121
93 | GUGGUUGGUGUUGGCAUCUAACACCGACCA [gtspaired] | -0.465
94 | UUUUUUUUUUGAGACGGCAACCGUUUCCUG [tttttgagapaired] | 0.593
95 | UUUUUUUUUUGAGACGGAGACCGUCUUCUA [tttttgagapaired] | 0.351
96 | UUUUUUUUUUGAGACUGAAACAGUCUCCUA [tttttgagapaired] | 0.116
97 | UUUUUUUUUUGAGACCGAGACGGUCUUCUA [tttttgagapaired] | 0.354
98 | UUUUUUUUUUGAGACGGUUUCCGUUUCCGG [tttttgagapaired] | 0.589
99 | GUGGUGUGUGUUGGUACCUAACACAUACCG [gtspaired] | -0.588
100 | UUUUUUUUUUGAGAGCGAUACGUUCUCCUG [tttttgagapaired] | 0.5
101 | UUUUUUUUUUGAGAGGGAGACCCUCUCCAG [tttttgagapaired] | 0.226
102 | UUUUUUUUUUGAGAGGGAAGCCCUCUCCAG [tttttgagapaired] | 0.365
103 | GUGGUGUGUGUUGGUCCCUAACACAUACUA [gtspaired] | -0.652
